Experimental data from publication PMC6149664, “Synthesis and In Vitro Antimycobacterial Activity of Novel N-Arylpiperazines Containing an Ethane-1,2-diyl Connecting Chain” (Molecules : A Journal of Synthetic Chemistry and Natural …, 2017).

Test system: human monocytic leukemia THP-1 cell line
Test: In vitro cytotoxicity screening, LDH assay
Conditions: THP-1 cells, 24 h, highest tested concentration 30 μM

CC[C@@]1(O)C(=O)OCc2c1cc1n(c2=O)Cc2cc3ccccc3nc2-1 [camptothecin, reference compound]
LD50 (lethal dose to 50% of a cell population): 0.16 ± 0.07 µM
